Results are given in words; binding and its absence hold for the method and conditions named. Binding seen in cells or lysates may run through a third protein. Some binding calls cover weakened binding; strength is not graded here. Tags and fused reporters may be left off the sequences shown.
Legend:
[1] = molecular target: T1, HA-tagged Dnttip1 (mouse) (UniProt Q99LB0); assay: co-IP; FLAG- and HA-tagged proteins co-expressed in HEK293 cells (harvested 24 hrs after transfection); whole cell lysates in MAPK buffer; agarose beads with anti-FLAG or anti-HA antibodies, 4°C, 2.5 hrs
T1 sequence: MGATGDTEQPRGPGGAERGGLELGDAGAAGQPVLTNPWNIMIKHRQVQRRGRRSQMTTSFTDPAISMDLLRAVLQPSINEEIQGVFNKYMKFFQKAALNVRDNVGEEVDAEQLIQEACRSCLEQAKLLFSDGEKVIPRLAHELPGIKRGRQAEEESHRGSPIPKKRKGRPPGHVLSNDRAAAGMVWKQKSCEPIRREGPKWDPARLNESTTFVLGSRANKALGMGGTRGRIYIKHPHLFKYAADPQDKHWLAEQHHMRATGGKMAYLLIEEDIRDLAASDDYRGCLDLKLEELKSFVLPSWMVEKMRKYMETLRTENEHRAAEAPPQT

HA-tagged ZNF541 (mouse) = molecular target: T2, HA-tagged ZNF541 (mouse) (UniProt Q0GGX2); assay: as above
T2 sequence: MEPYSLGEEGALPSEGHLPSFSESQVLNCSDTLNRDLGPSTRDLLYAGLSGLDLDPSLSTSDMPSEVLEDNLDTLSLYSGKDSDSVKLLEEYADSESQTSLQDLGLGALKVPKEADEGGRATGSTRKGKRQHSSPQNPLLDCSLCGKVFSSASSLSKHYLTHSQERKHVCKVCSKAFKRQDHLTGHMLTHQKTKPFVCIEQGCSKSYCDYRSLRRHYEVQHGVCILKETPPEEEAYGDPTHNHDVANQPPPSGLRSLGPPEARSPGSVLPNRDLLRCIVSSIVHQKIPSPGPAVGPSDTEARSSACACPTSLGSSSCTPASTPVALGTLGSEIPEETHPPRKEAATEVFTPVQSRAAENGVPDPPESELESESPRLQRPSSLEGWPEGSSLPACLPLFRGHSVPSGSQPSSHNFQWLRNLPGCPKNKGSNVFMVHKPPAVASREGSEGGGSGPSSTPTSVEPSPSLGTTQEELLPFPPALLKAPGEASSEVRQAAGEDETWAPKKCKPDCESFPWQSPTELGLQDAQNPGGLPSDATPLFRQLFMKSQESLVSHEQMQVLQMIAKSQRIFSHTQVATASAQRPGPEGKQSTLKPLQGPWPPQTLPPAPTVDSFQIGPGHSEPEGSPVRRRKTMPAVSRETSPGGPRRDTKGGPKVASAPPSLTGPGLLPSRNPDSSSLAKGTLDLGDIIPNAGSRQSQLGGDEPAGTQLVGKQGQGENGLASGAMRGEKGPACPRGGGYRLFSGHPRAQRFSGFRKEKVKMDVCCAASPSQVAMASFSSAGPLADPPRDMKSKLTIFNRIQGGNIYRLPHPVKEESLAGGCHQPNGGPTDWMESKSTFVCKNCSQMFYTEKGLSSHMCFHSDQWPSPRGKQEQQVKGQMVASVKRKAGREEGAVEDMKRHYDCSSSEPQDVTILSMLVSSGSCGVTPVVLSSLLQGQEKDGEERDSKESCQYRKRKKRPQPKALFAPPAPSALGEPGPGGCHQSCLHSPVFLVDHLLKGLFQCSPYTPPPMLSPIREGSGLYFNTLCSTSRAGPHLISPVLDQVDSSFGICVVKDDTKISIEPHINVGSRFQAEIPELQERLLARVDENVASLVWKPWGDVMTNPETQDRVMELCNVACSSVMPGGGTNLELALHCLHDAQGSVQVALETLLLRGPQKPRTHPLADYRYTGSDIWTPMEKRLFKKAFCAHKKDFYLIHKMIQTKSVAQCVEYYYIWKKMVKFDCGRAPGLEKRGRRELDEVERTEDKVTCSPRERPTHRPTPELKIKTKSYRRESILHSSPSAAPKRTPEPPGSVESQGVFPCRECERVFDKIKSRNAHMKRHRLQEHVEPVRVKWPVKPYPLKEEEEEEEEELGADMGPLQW

binding [1]: binds
binding (HA-tagged ZNF541 (mouse)): binds
B1: FLAG-tagged wild-type PKG-Iβ (enzyme, UniProt Q13976-2 1-686)
chain: MGTLRDLQYALQEKIEELRQRDALIDELELELDQKDELIQKLQNELDKYRSVIRPATQQAQKQSASTLQGEPRTKRQAISAEPTAFDIQDLSHVTLPFYPKSPQSKDLIKEAILDNDFMKNLELSQIQEIVDCMYPVEYGKDSCIIKEGDVGSLVYVMEDGKVEVTKEGVKLCTMGPGKVFGELAILYNCTRTATVKTLVNVKLWAIDRQCFQTIMMRTGLIKHTEYMEFLKSVPTFQSLPEEILSKLADVLEETHYENGEYIIRQGARGDTFFIISKGTVNVTREDSPSEDPVFLRTLGKGDWFGEKALQGEDVRTANVIAAEAVTCLVIDRDSFKHLIGGLDDVSNKAYEDAEAKAKYEAEAAFFANLKLSDFNIIDTLGVGGFGRVELVQLKSEESKTFAMKILKKRHIVDTRQQEHIRSEKQIMQGAHSDFIVRLYRTFKDSKYLYMLMEACLGGELWTILRDRGSFEDSTTRFYTACVVEAFAYLHSKGIIYRDLKPENLILDHRGYAKLVDFGFAKKIGFGKKTWTFCGTPEYVAPEIILNKGHDISADYWSLGILMYELLTGSPPFSGPDPMKTYNIILRGIDMIEFPKKIAKNAANLIKKLCRDNPSERLGNLKNGVKDIQKHKWFEGFNWEGLRKGTLTPPIIPSVASPTDTSNFDSFPEDNDEPPPDDNSGWDIDF
